# Reference: ChEMBL document CHEMBL4888484, “Replenishing the malaria drug discovery pipeline: Screening and hit evaluation of the MMV Hit Generation Library 1 (HGL1) against asexual blood stage Plasmodium falciparum ,using a nano luciferase reporter read-out” (2022)
# Among all 150,000 compounds or so, about 540 (0.36%) showed an effect of 50% or more. This is one part of the list.
# Test system: Plasmodium falciparum
# Test: Primary screen in NF54 nanoGlo assay, in single point, at 2uM, 72h; a lower Z score goes with more inhibition
# Assay type: functional, Erythrocyte
# Details: timepoint 72 hour
SMILES,% Inhibition,Z score
Cc1ccc(NC(=O)Nc2c(-c3ccncc3)[nH]c3c(Cl)cccc23)cc1,-3%,0.53
CCCn1cnnc1CN(C)CCC(F)(F)F,-1%,0.14
CN(Cc1ccccn1)C(=O)c1cn(C(c2ccccc2)c2ccccc2)nn1,-1%,0.11
O=C(O)CN(C(=O)COc1ccccc1-c1ccccc1)C1CCOCC1,7%,-0.97
CC(CCC1CCCC1)NC(=O)NCC1CCC(O)C1 (stereo unspecified),-3%,0.37
Cc1ccc(C(=O)N2CCN(c3oc(C4CC4)nc3C#N)CC2)cn1,-9%,1.45
COC(C)(c1ccccc1)c1nc([C@H]2CCO[C@@H]2C(C)(C)C)no1 (stereo partly specified),4%,-0.71
CCC1(CN[C@@H](C)CNS(=O)(=O)C2CC2)CCC1,-18%,1.62
Cc1cc(C)nc(C2CN(c3nc(CC(C)C)ns3)C2)n1,-20%,2.22
Cc1ccn(CCNC(=O)CCc2nc3ncccc3[nH]2)n1,-14%,1.48
C[C@H]1CCN(CC(=O)N2CCNC2=O)c2ccccc21,-10%,0.89
CC(C)C[C@H](N)C(=O)N(C)C1CCCCC1,-1%,0.14
Cn1cccc1CNC(=O)CCC1CCCC1,-7%,1.33
CC(C)(C(N)=O)c1ccc(C(F)(F)F)cc1,-4%,0.43
CCn1cc(-c2ccc(F)cc2)cc1C(=O)N1CCCCC1,-5%,0.81
COC[C@@](C)(O)CNC(=O)c1ccc(C)cc1F,0%,0.01
CN(CC(F)(F)C(F)(F)F)C(=O)c1ccccc1-c1cncnc1,-9%,1.29
O=C(CNC1(c2nccs2)CCCC1)NCC(F)(F)F,-8%,1.24
CC(C)(C)OC(=O)N1CC2(CC(=O)NCCN2C(=O)c2ccc[nH]2)C1,-7%,1.02
CCc1noc(CN2CCOc3c(O)cc(-c4nc(C)cnc4C)cc3C2)n1,-6%,0.73
CC(C)c1noc(CCNS(=O)(=O)c2ccc(Cl)c3ncccc23)n1,-10%,1.26
Cn1cncc1C(=O)N1CCC(CCC(=O)N2CCCC2)CC1,-1%,0.18

SMILES,% Inhibition,Z score
CCn1ccnc1-c1cccc(NC(=O)c2ccc(=O)n(CC)n2)c1,-10%,1.03
Cc1nn(C)cc1C(=O)OCc1ccc(N(C)C)c(F)c1,-2%,0.28
CCn1cc(NC(=O)NCc2cnn(C)c2)c(C)n1,0%,-0.02
Cc1nc(-c2ccco2)ccc1C(=O)Nc1ncccc1O,-8%,0.73
CCCN(CCOC)C(=O)N[C@@H](C)c1ccc(O)cc1,5%,-0.86
CC(=O)Nc1ccc(-c2nc3c([nH]2)c(C)nn3C2CCCC2)cc1,-11%,1.4
O=C(CC1(C(=O)O)CCCC1)Nc1cccc(CN2CCCCC2=O)c1,-4%,0.76
O=C(Cn1cc(C(F)(F)F)ccc1=O)Nc1cc(S(=O)(=O)N2CCCCC2)ccc1Cl,-17%,3.03
COC(=O)c1nc(NC(=O)CCc2cc(OC)no2)sc1CC(C)C,-4%,0.55
N#CC(c1ccc(Cl)cc1)N1N=C(c2ccccc2)CC1c1ccccc1 (stereo unspecified),32%,-0.64
CN(C)c1ncccc1NS(=O)(=O)CCc1cccc(F)c1,2%,-0.22
CCc1cc(NCc2cncn2C)ccc1C,-17%,2.12
Cc1cccc(C(=O)N2CC[C@H](CO)C[C@@H]2C)c1C,-11%,1.13
CNS(=O)(=O)C[C@H]1CCCN1C(=O)c1occc1C(C)C,-5%,0.65
CN1CCOC[C@H]2CCN(C(=O)c3ccc4[nH]ccc4c3)C[C@H]21,-5%,0.62
O=C(NCc1ccc[nH]1)c1ccc2c(c1)OCO2,-7%,0.88
CC1CN(C(=O)c2ccnc(-c3ncc[nH]3)c2)C(C)CN1C (stereo unspecified),-8%,1.1
C[C@@H](C(=O)N(C)Cc1cc[nH]n1)N1CCN(C)CC1,2%,-0.27
C[C@H](N)c1ccc(Nc2ncc3cc(-c4ccncc4)ccc3n2)cc1,85%,-9.36
Cc1ccccc1-c1ccccc1C(=O)N1CC(O)(c2ncnn2C)C1,-5%,0.74
CCN1CCC[C@@H]1CNC(=O)c1ccc(CN2CCc3ccccc3C2)o1,2%,-0.29
